30 compounds from PubChem BioAssay AID1347073 (National Center for Advancing Translational Sciences (NCATS), 2019) can be followed below.

In all, about 45,000 compounds went through this assay and about 200 (0.44%) were called active. Not shown: some 7% with an inconclusive outcome. Calls come from the whole dose curve; as a rule, active = well fitted activation curve with a large enough effect; inconclusive = small, poorly fitted or top-dose-only effect; inactive = no such curve, though single readings can be large or run the other way. The list shows a part of the results.

The experiment can be described thus: qHTS of TDP-43 Inhibitors: NCGC Sytravon Library Screen. Note: 0% is about no effect; nearly all actives have a fitted effect of over 55% in size. The note with it: yeast TDP-43 toxicity rescue, BacTiter-Glo growth, 24 h; series mostly up to 46.1 µM; growth rescue (activation): at the top concentration. In a few lines: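 TDP-43-expressing yeast, pregrown in raffinose, seeded at OD600 0.02 in galactose medium with compound for 24 hr at 30 deg C. Growth read by BacTiter-Glo luminescence, so rescue of toxicity appears as activation.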
For the compound `CC(=O)c1ccc(N(C(=O)c2ccco2)C(C(=O)NC2CCCC2)c2ccc(N3CCOCC3)cc2)cc1` (stereo not given), the “growth rescue (activation)” value is inactive: -2.43%.

For the compound `CCCCN(CC)CCCNC(=O)c1ccc(CSc2nc3ccncc3[nH]2)cc1`, the “growth rescue (activation)” value was inactive: 9.62%.

As to `O=C(O)c1ccc(NC(=O)c2cn(-c3ccccc3)nc2-c2ccc(F)cc2)cc1`, the “growth rescue (activation)” value was inactive: 4.07%.

Consider `COc1ccc(NC(=O)c2cc(C3CCCCN3C(=O)CCCc3ccccc3)on2)c(C)c1` (stereo not given), for which the “growth rescue (activation)” value was inactive: 10.2%.

Take `N#Cc1ccsc1NC(=O)CCN1C(=O)C2CCCCC2C1=O` (stereo not given): the “growth rescue (activation)” value is inactive: -8.02%.

For the compound `Nc1cc(F)ccc1N1CCCCCC1`, the “growth rescue (activation)” value was inactive: 12.3%.

With `CCCC1CCC(=NNS(=O)(=O)c2ccc(C)c([N+](=O)[O-])c2)CC1` (stereo not given), the “growth rescue (activation)” value was inactive: 4.85%.

As to `COc1ccc2nc(Cl)c(C3CC(c4ccco4)=NN3C(=O)CCCC(=O)O)cc2c1` (stereo not given), the “growth rescue (activation)” value is inactive: 11%.

As to `COc1cc(CN(C)c2ccc(S(=O)(=O)N3CCCC3)cn2)ccc1OC(F)F`, the “growth rescue (activation)” value was inactive: 1.74%.

Take `CC(C)Nc1nc(Nc2ccc(F)cc2)c2sccc2n1`: the “growth rescue (activation)” value was inactive: 12.7%.

For `Cc1cc(N2CCCC2=O)cc(C)c1S(=O)(=O)Nc1c(C)nn(C)c1C`, the “growth rescue (activation)” value was inactive: 2.76%.

As to `O=C(O)c1ccc(N/N=C/c2ccc(F)c(F)c2)cc1`, the “growth rescue (activation)” value is inactive: -84.9%.

For `COc1ccc(NC(=O)N2CCN(c3nc4ccccc4n3C(C)C)CC2)cc1`, the “growth rescue (activation)” value is inactive: -1.45%.

In the case of `CN(C)c1ccc(C(O)P(=O)(OC2CCCCC2)OC2CCCCC2)cc1` (stereo not given), the “growth rescue (activation)” value is inactive: -7.15%.

Take `Cc1ccc(C(=O)NCCNC(=O)c2cccnc2)cc1`: the “growth rescue (activation)” value was inactive: -11.8%.

Regarding `Cc1ccc2cc3c(nc2c1)OCC3`, the “growth rescue (activation)” value was inactive: 17.5%.

As to `CNc1nc(-c2c(C)[nH]c3ccc(OC)cc23)cs1`, the “growth rescue (activation)” value was inactive: -18.7%.

For the compound `COc1ccc(NC(=O)N/C=C/c2ccccc2)cc1`, the “growth rescue (activation)” value was inactive: -8.37%.

As for `O=C(O)C1C2C=CC(O2)C1C(=O)NCCc1cccc(Cl)c1` (stereo not given), the “growth rescue (activation)” value was inactive: -4.02%.

Turning to `Cc1ccccc1C1NC(c2ccccc2C)C([N+](=O)[O-])C(C)(C)C1[N+](=O)[O-]` (stereo not given), the “growth rescue (activation)” value was inactive: 0.172%.

With `COc1cc([N+](=O)[O-])cc(/C=N/NC(=O)C(C)Nc2cccc(C)c2)c1O` (stereo not given), the “growth rescue (activation)” value is inactive: 14.9%.

For the compound `COc1cc(C(=O)NCc2ccncc2)cc(OC)c1OC`, the “growth rescue (activation)” value is inactive: 6.33%.

Consider `O=C(c1ccc(CN2CCc3ccccc3C2)cc1)N1CCN(c2ccccc2)CC1`, for which the “growth rescue (activation)” value was inactive: 13.8%.

`S=C(NCc1ccccc1)NCc1ccc(CNC(=S)NCc2ccccc2)cc1`: the “growth rescue (activation)” value was inactive: 19%.

As for `CCS(=O)(=O)N1Cc2ccccc2CC1C(=O)Nc1cccc(OC)c1` (stereo not given), the “growth rescue (activation)” value is inactive: -1.32%.

Consider `Cc1ccc(S(=O)(=O)N2CCCCC2C(=O)O)s1` (stereo not given), for which the “growth rescue (activation)” value was inactive: -28.3%.

Regarding `COC(=O)C(C(C)C)N1CCc2c(C)nc3c(C#N)cnn3c21` (stereo not given), the “growth rescue (activation)” value was inactive: 22.8%.

For `CCOc1ccc(S(=O)(=O)N2CCN(C(=O)c3cccn3C)CC2)cc1`, the “growth rescue (activation)” value is inactive: 32.3%.

On to `CCc1ccccc1NC(=O)c1ccc(OCc2c(C)noc2C)cc1`, for which the “growth rescue (activation)” value was inactive: 14.6%.

Consider `O=C(NCC1CCCO1)C1CCN(C2CCN(Cc3ccco3)CC2)CC1` (stereo not given), for which the “growth rescue (activation)” value is inactive: -17.8%.
